± gives the standard deviation of the averaged measurements. Restriction of a single-cycle SIVsab GFP reporter by TRIM5α v1-loop variants in CRFK cells. Human variants: read share among cells still uninfected after two challenges over input, higher = gained restriction. Rhesus variants: share among infected cells over input, higher = lost restriction. Reporter dose not given per row. No active / inactive call per row; the paper calls a change when both replicates lie above its controls (mean + 2 SD of stop or wild-type variants, or the top frameshift score). Residues outside the varied loop are taken from Swiss-Prot. The paper reads the human single-substitution scores as noise; they and the rhesus combinations repeat poorly (rank correlation 0.3 to 0.4), indel scores repeat only for the top variants, rhesus substitutions well (0.9).
Tested on: SIVsab (simian immunodeficiency virus of sabaeus monkeys), single-cycle GFP reporter, in CRFK cells
Assay: enrichment among uninfected cells over input (fold); higher = stronger restriction
Conditions: library: human / rhesus combinations
Experimental: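 Pools of CRFK cells expressing variants of the TRIM5α v1 loop were challenged with the single-cycle reporter, sorted by GFP and sequenced; mean of two replicates.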

Sequence	enrichment
MASGILVNVKEEVTCPICLELLTQPLSLDCGHSFCQACLTANHKKSMLDKGESSCPVCRISYQPENIRPNRHVANIVEKLREVKLSPEGQKVDHCARHGEKLLLFCQEDGKVICWLCERSQEHRGHHTFLTEEVAREYQVKLQAALEMLRQKQQEAEELEADIREEKASWKTQIQYDKTNVLADFEQLRDILDWEESNELQNLEKEEEDILKSLTNSETEMVQQTQSLRELISDLEHRLQGSVMELLQGVDGVIKRTENVTLKKPETFPKNQRRVFRAPDLKGMLEVFRELTDVRRYWVDVTVAPNNISCAVISEDKRQVSSPKPQIIYQARGTLFTFPSFTNFNYCTGILGSQSITSGKHYWEVDVSKKTAWILGVCAGFQPDAMCNIEKNENYQPKYGYWVIGLEEGVKCSAFQDSSFHTPSVPFIVPLSVIICPDRVGVFLDYEACTVSFFNITNHGFLIYKFSHCSFSQPVFPYLNPRKCGVPMTLCSPSS [human TRIM5α, 330-340 = QARGTLFTFPSFT]	3.82 ± 0.53
MASGILVNVKEEVTCPICLELLTQPLSLDCGHSFCQACLTANHKKSMLDKGESSCPVCRISYQPENIRPNRHVANIVEKLREVKLSPEGQKVDHCARHGEKLLLFCQEDGKVICWLCERSQEHRGHHTFLTEEVAREYQVKLQAALEMLRQKQQEAEELEADIREEKASWKTQIQYDKTNVLADFEQLRDILDWEESNELQNLEKEEEDILKSLTNSETEMVQQTQSLRELISDLEHRLQGSVMELLQGVDGVIKRTENVTLKKPETFPKNQRRVFRAPDLKGMLEVFRELTDVRRYWVDVTVAPNNISCAVISEDKRQVSSPKPQIIYQAPGTLYTFQTLVNFNYCTGILGSQSITSGKHYWEVDVSKKTAWILGVCAGFQPDAMCNIEKNENYQPKYGYWVIGLEEGVKCSAFQDSSFHTPSVPFIVPLSVIICPDRVGVFLDYEACTVSFFNITNHGFLIYKFSHCSFSQPVFPYLNPRKCGVPMTLCSPSS [human TRIM5α, 330-340 = QAPGTLYTFQTLV]	0.0903 ± 0.014
MASGILVNVKEEVTCPICLELLTQPLSLDCGHSFCQACLTANHKKSMLDKGESSCPVCRISYQPENIRPNRHVANIVEKLREVKLSPEGQKVDHCARHGEKLLLFCQEDGKVICWLCERSQEHRGHHTFLTEEVAREYQVKLQAALEMLRQKQQEAEELEADIREEKASWKTQIQYDKTNVLADFEQLRDILDWEESNELQNLEKEEEDILKSLTNSETEMVQQTQSLRELISDLEHRLQGSVMELLQGVDGVIKRTENVTLKKPETFPKNQRRVFRAPDLKGMLEVFRELTDVRRYWVDVTVAPNNISCAVISEDKRQVSSPKPQIIYQAPGTLYTFPTLVNFNYCTGILGSQSITSGKHYWEVDVSKKTAWILGVCAGFQPDAMCNIEKNENYQPKYGYWVIGLEEGVKCSAFQDSSFHTPSVPFIVPLSVIICPDRVGVFLDYEACTVSFFNITNHGFLIYKFSHCSFSQPVFPYLNPRKCGVPMTLCSPSS [human TRIM5α, 330-340 = QAPGTLYTFPTLV]	0.546 ± 0.18

Same assay, conditions: library: insertions and deletions

Sequence	enrichment
MASGILVNVKEEVTCPICLELLTQPLSLDCGHSFCQACLTANHKKSMLDKGESSCPVCRISYQPENIRPNRHVANIVEKLREVKLSPEGQKVDHCARHGEKLLLFCQEDGKVICWLCERSQEHRGHHTFLTEEVAREYQVKLQAALEMLRQKQQEAEELEADIREEKASWKTQIQYDKTNVLADFEQLRDILDWEESNELQNLEKEEEDILKSLTNSETEMVQQTQSLRELISDLEHRLQGSVMELLQGVDGVIKRTENVTLKKPETFPKNQRRVFRAPDLKGMLEVFRELTDVRRYWVDVTVAPNNISCAVISEDKRQVSSPKPQIIYTFVNFNYCTGILGSQSITSGKHYWEVDVSKKTAWILGVCAGFQPDAMCNIEKNENYQPKYGYWVIGLEEGVKCSAFQDSSFHTPSVPFIVPLSVIICPDRVGVFLDYEACTVSFFNITNHGFLIYKFSHCSFSQPVFPYLNPRKCGVPMTLCSPSS [human TRIM5α, 8-codon deletion at 330]	3.19 ± 3.6
MASGILVNVKEEVTCPICLELLTQPLSLDCGHSFCQACLTANHKKSMLDKGESSCPVCRISYQPENIRPNRHVANIVEKLREVKLSPEGQKVDHCARHGEKLLLFCQEDGKVICWLCERSQEHRGHHTFLTEEVAREYQVKLQAALEMLRQKQQEAEELEADIREEKASWKTQIQYDKTNVLADFEQLRDILDWEESNELQNLEKEEEDILKSLTNSETEMVQQTQSLRELISDLEHRLQGSVMELLQGVDGVIKRTENVTLKKPETFPKNQRRVFRAPDLKGMLEVFRELTDVRRYWVDVTVAPNNISCAVISEDKRQVSSPKPQIIYGARGTRYQTARGTRYQTFVNFNYCTGILGSQSITSGKHYWEVDVSKKTAWILGVCAGFQPDAMCNIEKNENYQPKYGYWVIGLEEGVKCSAFQDSSFHTPSVPFIVPLSVIICPDRVGVFLDYEACTVSFFNITNHGFLIYKFSHCSFSQPVFPYLNPRKCGVPMTLCSPSS [human TRIM5α, 8-codon duplication at 331]	0.436 ± 0.064
MASGILVNVKEEVTCPICLELLTQPLSLDCGHSFCQACLTANHKKSMLDKGESSCPVCRISYQPENIRPNRHVANIVEKLREVKLSPEGQKVDHCARHGEKLLLFCQEDGKVICWLCERSQEHRGHHTFLTEEVAREYQVKLQAALEMLRQKQQEAEELEADIREEKASWKTQIQYDKTNVLADFEQLRDILDWEESNELQNLEKEEEDILKSLTNSETEMVQQTQSLRELISDLEHRLQGSVMELLQGVDGVIKRTENVTLKKPETFPKNQRRVFRAPDLKGMLEVFRELTDVRRYWVDVTVAPNNISCAVISEDKRQVSSPKPQIIYGARGTRYQTFVNVNFNYCTGILGSQSITSGKHYWEVDVSKKTAWILGVCAGFQPDAMCNIEKNENYQPKYGYWVIGLEEGVKCSAFQDSSFHTPSVPFIVPLSVIICPDRVGVFLDYEACTVSFFNITNHGFLIYKFSHCSFSQPVFPYLNPRKCGVPMTLCSPSS [human TRIM5α, 2-codon duplication at 340]	0.357 ± 0.12
MASGILVNVKEEVTCPICLELLTQPLSLDCGHSFCQACLTANHKKSMLDKGESSCPVCRISYQPENIRPNRHVANIVEKLREVKLSPEGQKVDHCARHGEKLLLFCQEDGKVICWLCERSQEHRGHHTFLTEEVAREYQVKLQAALEMLRQKQQEAEELEADIREEKASWKTQIQYDKTNVLADFEQLRDILDWEESNELQNLEKEEEDILKSLTNSETEMVQQTQSLRELISDLEHRLQGSVMELLQGVDGVIKRTENVTLKKPETFPKNQRRVFRAPDLKGMLEVFRELTDVRRYWVDVTVAPNNISCAVISEDKRQVSSPKPQIIYGARGTRYQTFVNFNYCTFVNFNYCTGILGSQSITSGKHYWEVDVSKKTAWILGVCAGFQPDAMCNIEKNENYQPKYGYWVIGLEEGVKCSAFQDSSFHTPSVPFIVPLSVIICPDRVGVFLDYEACTVSFFNITNHGFLIYKFSHCSFSQPVFPYLNPRKCGVPMTLCSPSS [human TRIM5α, 8-codon duplication at 338]	0.564 ± 0.28
MASGILVNVKEEVTCPICLELLTQPLSLDCGHSFCQACLTANHKKSMLDKGESSCPVCRISYQPENIRPNRHVANIVEKLREVKLSPEGQKVDHCARHGEKLLLFCQEDGKVICWLCERSQEHRGHHTFLTEEVAREYQVKLQAALEMLRQKQQEAEELEADIREEKASWKTQIQYDKTNVLADFEQLRDILDWEESNELQNLEKEEEDILKSLTNSETEMVQQTQSLRELISDLEHRLQGSVMELLQGVDGVIKRTENVTLKKPETFPKNQRRVFRAPDLKGMLEVFRELTDVRRYWVDVTVAPNNISCAVISEDKRQVSSPKPQIIYGARVNFNYCTGILGSQSITSGKHYWEVDVSKKTAWILGVCAGFQPDAMCNIEKNENYQPKYGYWVIGLEEGVKCSAFQDSSFHTPSVPFIVPLSVIICPDRVGVFLDYEACTVSFFNITNHGFLIYKFSHCSFSQPVFPYLNPRKCGVPMTLCSPSS [human TRIM5α, 7-codon deletion at 333]	0.411 ± 0.35

From the supplement of paper PMC12230231
